Laboratory results taken from PubChem BioAssay AID1671193 (National Center for Advancing Translational Sciences (NCATS), 2021).
Screen size: about 150,000 compounds; about 180 (0.12%) were called active. Inconclusive means that the source gave no clear call. Such entries were picked first, then a sample of the others. Calls follow the shape of the dose curve; as a rule, active = well fitted cell-killing curve with a large enough effect; inconclusive = small, poorly fitted or top-dose-only effect, or effect the other way; inactive = flat fitted curve, though single readings scatter. A potency beside an inconclusive call is a rough fit, not a confirmed value.

test: GF-AFC viability counterscreen for inhibitors of alpha-synuclein gene (SNCA) expression; conditions: HEK-293-SNCA-luc viability, GF-AFC fluorescence, 24 h; activity change, negative = cytotoxicity: at 57.1 µM (top of the series) unless noted; also: nearly all actives have a fitted effect of over 30% in size
Description: Assay Submitter (PI): Daniel R. Scoles Ph.D.
Department of Neurology, University of Utah, Salt Lake City, Utah
Accumulation of alpha-synuclein is a main underlying pathological feature of Parkinson's disease (PD) and alpha-synucleinopathies, for which lowering expression of the alpha-synuclein gene (SNCA) is a potential therapeutic avenue. Using a cell-based luciferase reporter of SNCA expression we performed a quantitative high throughput screen (qHTS) of 155,885 compounds in dose response. The screening assay was generated using genome editing to insert the luciferase gene downstream and in frame of the SNCA gene in HEK-293 cells (1). A viability counterscreen using GF-AFC was used to eliminate cytotoxic and false positive compounds. After in silico analysis (clustering, removal of frequent hitter nuisance chemotypes), inhibitor compounds from the primary screen were selected for follow up and re-tested at 11-doses in the SNCA-luc cells (luciferase and GF-AFC confirmation), and in CMV-luc expressing cell line to flag general transcriptional repressors.
Described herein are the results of the GF-AFC viability counterscreen for SNCA inhibitors; inactivity (no decrease in fluorescence signal, not cytotoxic) is the desired output for this assay.
1. Dansithong, W., Paul, S., Scoles, D. R., Pulst, S. M., and Huynh, D. P. (2015) Generation of SNCA Cell Models Using Zinc Finger Nuclease (ZFN) Technology for Efficient High-Throughput Drug Screening. PLoS ONE 10, e0136930.
SEQUENCE No. (e.g., 1, 2, 3, etc.); […] (e.g., Cells, Incubation, Reagent, etc.); VALUE; DESCRIPTION
1; Cells; 4 uL; Dispense 1500 HEK-293-SNCA-luc cells/well into Greiner 1536-well white / solid bottom tissue culture treated plate. The plate was covered with metal lids with gas-exchange holes.
2; Incubate; 24 hours; Incubate at 37C, 5% CO2, 95% RH.
3; Compounds; 23 nL; Compounds and controls were transferred via a Kalypsys Pin Tool (Wako USA) equipped with a 1536-slotted pin array. The plate was covered with metal lids with gas-exchange holes.
4; Incubate; 24 hours; Incubate at 37C, 5% CO2, 95% RH.
5; Dispense; 1 uL; Dispense Gly-Phe-7-amino-4-trifluoromethylcoumarin (GF-AFC, prepared at 125 uM in PBS) was added. The plate was covered with metal lids with gas-exchange holes.
6; Incubate; 30 min; Incubate at 37C, 5% CO2.
7; Detector; Fluorescence; Measure fluorescence with ViewLux microplate reader (PerkinElmer) equipped with 405/10 excitation and 540/25 emission filters.
8; Dispense; 3 uL; Dispense ONE-Glo ([…]) lucifase detection reagent was added to each well. Plates were covered with metal lids with gas-exchange holes.
9; Incubate; 15 min; Incubate at room temperature.
10; Detector; Luminescence; Measure luminescence with ViewLux microplate reader (PerkinElmer) equipped with clear filters.
NOTES (numbers refer to sequence above)
1; HEK-293-SNCA-luc were cultured and suspended in phenol-red free DMEM (4.5 g/L glucose, 25 mM HEPES, cat #21063 (Thermo)).
3; Compounds were added to the assay plate in an 11-point intra plate dose response, 1:3 titration in DMSO with a final concentration range of […]. Vehicle-only plates, with DMSO being pin-transferred to every well, were inserted at the beginning of screening runs to confirm expected assay performance. Activity was normalized to wells containing medium only (-100% activity, full inhibition) and SNCA-luc cells treated with DMSO vehicle control (0% activity), contained on the same plate as test samples.
10; Signals were analyzed, and dose-response curves were fit using the Hill equation. Compounds in curve classes -1.1, -1.2, -2.1, -2.2 in the SNCA-luc assay were considered active. Compounds were eliminated from further consideration if also active (curve class -1.1, -1.2, -1.3, -1.4, -2.1, -2.2, -2.3, -2.4) in the GF-AFC cytotoxicity assay.
Potency is read from the fitted curve at half-maximal effect; tags tell the direction and shape of the fitted curve.

SMILES	Potency	activity change, negative = cytotoxicity
O=C(NC1CCN(c2cc(-c3ccc(F)cc3)[nH]n2)C1)c1ccc2c(c1)OCO2 (stereo not drawn)	inconclusive: 11.2 µM [cytotoxic, partial curve, poor fit]	–
CC(NC(=O)c1ccc(OC(F)(F)F)cc1)C(=O)N1CCN(c2ccccn2)CC1 (stereo not drawn)	inactive	–
NCc1c[nH]c(=S)n1C1CCc2c(F)cc(F)cc2C1 (stereo not drawn)	inconclusive: 0.336 µM [rising, full curve, poor fit]	–
COc1ccc(-c2nnc(C[C@@H]3C[C@@H](C(C)C)[C@H](CNCc4ccco4)C=C3C)o2)cc1	inconclusive: 20 µM [cytotoxic, partial curve, poor fit]	–
Fc1ccc(-c2noc3ncnc(NCc4ccc(Cl)cc4)c23)cc1	inconclusive: 0.316 µM [rising, full curve, poor fit]	–
CN(C)c1ncc2c(n1)C(C)(C(=O)NCCOc1ccccc1)CCC2 (stereo not drawn)	inactive	–
Cc1cc(Nc2cc(N3CCN(C)CC3)nc(C=Cc3ccccc3)n2)n[nH]1	inconclusive: 12.4 µM [cytotoxic, full curve, poor fit]	–
CC(C)(C)OC(=O)N1CC(Nc2cccc(C(F)(F)F)c2)C1	inactive	–
Cc1cn2c(=O)cc(COC(=O)c3ccc(NC(=O)COc4ccccc4F)cc3)nc2s1	inactive	–
COCCc1noc([C@@H]2CN(Cc3ccc4[nH]ccc4c3)C[C@H]2CO)n1	inactive	–
Cc1ccc([S+](=O)([O-])c2nnn3c2nc(N2CCC(F)CC2)c2ccccc23)cc1	inconclusive: 2.82 µM [rising, full curve, poor fit]	–
CC1=C[C@@H](CNCc2ccncc2)[C@H](C(C)C)C[C@H]1Cc1nnc(-c2ccccc2F)o1	inconclusive: 39.8 µM [cytotoxic, partial curve, poor fit]	–
Cc1cc(O)c(-c2ccc([C@@H](C)CN(C)C)cc2)c2c1[nH]c(=O)c1sccc12	inconclusive: 0.0532 µM [cytotoxic, partial curve, poor fit]	–
COc1ccc(-c2nnc(C[C@@H]3C[C@@H](C(C)C)[C@H](CNCc4ccncc4)C=C3C)o2)cc1	inconclusive: 2.82 µM [cytotoxic, full curve, poor fit]	–
Cn1c(=O)c2ccnn2c2ccc(C(=O)NCC3CCN(Cc4ccccc4F)CC3)cc21	inactive	–
CC(=O)c1ccc(N2C(=O)N(CC(=O)c3ccc(F)cc3)c3ccccc3S2(=O)=O)cc1	inconclusive: 39.8 µM [cytotoxic, single point]	–
Cc1cc(C(=O)NC2CCCN(c3ccnc4ccnn34)C2)ccc1Cl (stereo not drawn)	inconclusive: 3.55 µM [cytotoxic, full curve, poor fit]	–
Cc1cc2c(-c3ccc(CO)cc3)nc(-c3c(C)noc3C)cc2[nH]1	inactive	–
CC(C)C[C@@H]1N[C@H](C(=O)NCc2cccnc2)Cc2c[nH]c3cccc1c23	inconclusive: 56.2 µM [cytotoxic, single point]	–
COC(=O)C[C@H]1c2cccnc2C(=O)N(C)[C@@H]1C(=O)NCCc1ccccc1	inactive	–
CCC(Sc1nc2ccccc2c(=O)n1CCc1ccc(OC)c(OC)c1)C(=O)N(CC)CC (stereo not drawn)	inconclusive: 22.4 µM [cytotoxic, partial curve, poor fit]	–

SMILES	Potency	activity change, negative = cytotoxicity
CC1=C[C@@H](CN2CCC(C(N)=O)CC2)[C@H](C(C)C)C[C@H]1Cc1nnc(-c2ccc(N(C)C)cc2)o1	inactive	–
O=C(Nc1ccc(F)cc1F)N1CCOc2ccc(CN3CCc4ccccc4C3)cc2C1	inconclusive: 25.1 µM [cytotoxic, single point]	–
CN1N=C(N)c2cn([C@@H]3O[C@H](COP(=O)(O)O)[C@@H](O)[C@@H]3O)c3ncnc1c23	inconclusive: 17.1 µM [cytotoxic, partial curve, poor fit]	–
O=c1nc2n(-c3ccccc3F)c3ccccc3cc-2c(=O)[nH]1	inconclusive: 22.4 µM [rising, partial curve]	–
COc1cccc(-c2ccc(CN3CCCC(NC(=O)c4cccc(Cl)c4)C3)cc2)c1 (stereo not drawn)	inactive	–
CCCc1ccc(S(=O)(=O)NC2CCN(c3ccc(=O)n(CC4CC4)n3)CC2)cc1	inactive	–
Cn1cncc1C(N)(c1ccc(Cl)cc1)c1ccc2c(c1)c(-c1cccc(Cl)c1)cc(=O)n2C (stereo not drawn)	active: 9.47 µM	–
C=CCC(=O)N1CCCC1C(=O)Nc1ccc(-c2cccc(OC)c2)cc1 (stereo not drawn)	inactive	–
C[C@@H]1C[C@@H]2O[C@H]2/C=C\C=C\C(=O)Cc2c(Cl)c(O)cc(O)c2C(=O)O1	inconclusive: 5.21 µM [cytotoxic, partial curve, poor fit]	–
CC(C)CNC(=O)c1ccc(-c2nnc3ccc(NC(=O)C4CC4)cn23)cc1	inactive	–
CCOC(=O)Nc1ccc(NCc2ccc(F)cc2)nc1N	inactive	–
CN1CCN(c2ccc(-c3cc4c(ccn4C)c(C(=O)NCCc4ccccn4)n3)cc2)CC1	inconclusive: 28.2 µM [cytotoxic, single point]	–
Cc1nc2cccnc2n1-c1cccc(C(=O)N2CCN(c3ccc(Cl)cc3)CC2)c1	inconclusive: 39.8 µM [cytotoxic, single point]	–
CCN1CC2(CCN(C(=O)Cc3c(C)[nH]c4c(F)cccc34)CC2)OC1=O	inactive	–
CCSc1nnc2n(-c3cccc(C)c3)c(=O)c3c4c(sc3n12)CCCC4	inconclusive: 1.26 µM [cytotoxic, full curve, poor fit]	–
COc1cccc(Nc2ncc3nc(-c4cn(C)c5ccccc45)c(=O)n(CCC#N)c3n2)c1	inconclusive: 25.1 µM [rising, partial curve, poor fit]	–
COCC(=O)Nc1c(I)c(C(=O)NCC(O)CO)c(I)c(C(=O)N(C)CC(O)CO)c1I (stereo not drawn)	–	inconclusive: 73.1% [at 23.9 µM]
Cc1nc2c(c(-c3ccc(Cl)cc3)n1)CN([S+](=O)([O-])c1ccsc1)CC2	inactive	–
COc1cccc(C2C=C(c3ccc(C)c(C)c3)Nc3nnnn32)c1OC (stereo not drawn)	inconclusive: 39.8 µM [rising, single point]	–
COc1cc(NC(=O)Nc2cccc(-c3ccc(N4CCOCC4)nn3)c2)cc(OC)c1	inconclusive: 35.5 µM [cytotoxic, single point]	–
CCN(CC)C(=O)C1=C(C)N=C2SC=C(CC(=O)NCc3ccccc3)N2C1c1ccccc1F (stereo not drawn)	inactive	–

SMILES	Potency	activity change, negative = cytotoxicity
CC(C)c1noc([C@@H]2C[C@H]3C(=O)NCCCCCCN(C(=O)CCc4ccccc4)[C@H]3C2)n1	inconclusive: 3.16 µM [cytotoxic, full curve, poor fit]	–
O=C(NC(=O)c1ccc(F)cc1)Nc1ccc(-c2cc(C(F)(F)F)nn2-c2ccccc2)cc1	inactive	–
CC(C)(C)c1ccc(OCC(=O)N2CCC(c3nc4ccccc4s3)CC2)cc1	inconclusive: 1.58 µM [cytotoxic, full curve, poor fit]	–
COc1ccc(OCC2(C)COc3ccc(C(=O)N4C[C@@H](C)O[C@@H](C)C4)cc3N2)cc1 (stereo partly drawn)	inconclusive: 8.91 µM [cytotoxic, single point]	–
COc1ccc(-c2noc(CC3CCN(C(=O)c4cc(F)ccc4F)CC3)n2)cc1	inactive	–
Cn1cc(-c2nc3cnc(N4CCNCC4)nc3n(C)c2=O)c2ccccc21	inconclusive: 3.55 µM [rising, partial curve, poor fit]	–
COc1ccc(N(C)C(=O)c2cn(C3CCCCC3)c(=O)c3c2c2ccccc2n3C)cc1	inconclusive: 22.4 µM [cytotoxic, single point]	–
Cc1ccc(-n2nc(C)c([C@@H]3C=C[C@@H](NCc4ccc(F)cc4)C3)c2C)cc1Cl	inconclusive: 56.2 µM [cytotoxic, single point]	–
O=C(CC1C(=O)NCCN1Cc1cccc(Oc2ccccc2)c1)NC1CCOCC1 (stereo not drawn)	inconclusive: 17.8 µM [rising, partial curve, poor fit]	–
CCOc1ccc(NC(=O)CSc2nc3c(oc4ccccc43)c(=O)n2-c2ccccc2C)cc1	inconclusive: 20 µM [cytotoxic, partial curve, poor fit]	–
O=C(CCNc1c(-c2cccc(F)c2)nc2cnccn12)NCC1CCCO1 (stereo not drawn)	inconclusive: 28.2 µM [rising, single point]	–
Cc1nc(-c2c3n(c(=O)n(CC(=O)Nc4cc(F)ccc4F)c2=O)CCCC3)no1	inconclusive: 25.1 µM [cytotoxic, partial curve, poor fit]	–
Cc1ccc(C(=O)N2CCC(C3CCN(Cc4cccc(F)c4F)CC3)C2)cn1 (stereo not drawn)	inconclusive: 8.91 µM [cytotoxic, single point]	–
COc1ccc(-c2cc3ccc(O)c(CN4CCOCC4)c3oc2=O)cc1OC	inconclusive: 22.4 µM [rising, partial curve]	–
CCNC(=O)[C@@H]1C[C@H](NC(=O)c2ccccc2)CN1Cc1scnc1C	inactive	–
O=C(NCc1cccs1)c1nc(-c2ccccc2)c2ccccn12	inactive	–
CN1C(=O)c2ccccc2Sc2ccc(NC(=O)c3ccccc3F)cc21	inconclusive: 8.91 µM [cytotoxic, full curve, poor fit]	–
O=C1NCC(c2ccc(Cl)cc2)Cc2[nH]c(-c3ccc(O)cc3)nc21 (stereo not drawn)	inconclusive: 20 µM [cytotoxic, partial curve, poor fit]	–
CCCc1noc(-c2cccn3c(CNC(=O)Cc4ccc(Cl)cc4)nnc23)n1	inactive	–
COc1cc(F)ccc1-c1cnc2n[nH]c(-c3ccc4c(c3)OCO4)c2n1	inconclusive: 56.2 µM [cytotoxic, single point]	–
CC(C)c1noc([C@H]2C[C@@H]3C(=O)NCCCCCCN(C(=O)Cc4cccnc4)[C@@H]3C2)n1	inconclusive: 25.1 µM [cytotoxic, single point]	–
